# Data taken from the supplement of paper PMC3334620.
# Whole data set: some 33,000 sequences, median “E-score (-0.5 to 0.5)” near -0.013, cut for the highest 2% near 0.3. This is one part of the list.
# Molecular target: T1, Msn1 (UniProt P22148)
# T1 sequence: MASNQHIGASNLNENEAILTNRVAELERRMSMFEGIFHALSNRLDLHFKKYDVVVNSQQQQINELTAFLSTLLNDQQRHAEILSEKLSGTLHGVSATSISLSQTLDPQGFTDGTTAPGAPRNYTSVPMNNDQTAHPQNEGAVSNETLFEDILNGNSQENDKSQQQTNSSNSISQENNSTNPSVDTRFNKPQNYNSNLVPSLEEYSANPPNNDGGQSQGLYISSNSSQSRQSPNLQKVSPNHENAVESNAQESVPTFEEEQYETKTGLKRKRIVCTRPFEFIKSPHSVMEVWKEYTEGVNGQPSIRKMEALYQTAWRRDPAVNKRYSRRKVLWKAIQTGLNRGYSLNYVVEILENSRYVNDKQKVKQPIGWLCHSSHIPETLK
# Assay: PBM E-score (8-mer binding enrichment) (E-score (-0.5 to 0.5)); higher = stronger / more preferred TF binding; most listed sequences are background and not binding sites
# Settings: protein concentration: 200 nM; construct: GST-full length
# Protocol: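 Universal 'all 10-mer' protein binding microarrays (Agilent AMADID 015681) probed with GST-tagged S. cerevisiae TFs (full-length or DBD) made by in vitro transcription/translation (PURExpress), about 100-200 nM. Bound TF was detected with fluorescent anti-GST. Each ungapped 8-mer (which stands for itself and its reverse complement) is scored by the PBM enrichment score (E-score), a modified Wilcoxon-Mann-Whitney statistic from -0.5 to +0.5, computed with the Universal PBM Analysis Suite. Scale: above 0.35 generally sequence-specific binding.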
row,Sequence,PBM E-score
1,ACACGTTC,-0.0287
2,TGACATCA,0.257
3,AAGAAACC,-0.0163
4,ACGGCCGG,0.0031
5,ACATTTGA,0.311
6,TAAGCGAA,-0.0548
7,AATCTTGC,0.0456
8,CTACATAA,-0.237
9,GTTGCAAC,0.0496
10,CATAGGCC,-0.112
11,CCTGGAGC,-0.216
12,ACTATTAC,0.0424
13,TATAACCA,0.0511
14,CTAAAGTC,0.0857
15,CTTGGCGA,-0.19
16,AAGAGCTA,-0.123
17,AGACCAAC,-0.123
18,CAAGGATG,0.0518
19,GGCTCAAA,0.0121
20,CCAACCTC,-0.183
21,ACTCGCCC,-0.215
22,AAAAATAT,0.208
23,GCGATCAC,-0.129
24,AACACCAC,-0.00468
25,GCTGAAAA,0.0171

row,Sequence,PBM E-score
1,CGGATCCA,0.0747
2,AGTAGTCA,-0.0439
3,GAAGGCTA,-0.174
4,CTATGAAC,0.0959
5,CTCTTTTC,-0.0127
6,CTGAGAAA,0.133
7,CTCCCGGA,-0.105
8,AAGATGCG,0.0848
9,AACACGAA,0.0949
10,GACGTGTA,0.0955
11,AGAGGACT,-0.21
12,AGGTTTAC,-0.0715
13,CTCCCCTC,-0.138
14,CACGACAA,0.256
15,AAGTACAA,0.306
16,ATCCGATA,0.128
17,GGGTATCA,0.0836
18,ATGCGCGA,-0.0619
19,TCGATCCA,0.00147
20,ACTGGAGA,-0.0757
21,ATCACAAG,-0.0096
22,ATGCTTGA,-0.0597
23,ATCAGCAA,-0.0713
24,AAAGACCC,-0.137
25,GCTATACC,-0.164

row,Sequence,PBM E-score
1,AGCACCTG,-0.0542
2,CGCTCACC,0.00051
3,AATGCCAA,0.0776
4,ACCTGCCC,-0.0652
5,AACGGTCC,0.0385
6,AAACAAGC,0.0674
7,ACACTCAA,0.14
8,AAGCTACC,-0.0471
9,TACTCGCA,0.0491
10,GTTACGGA,0.0434
11,AACTCTTA,0.0384
12,GGCCCGAC,-0.126
13,GACATCGA,0.208
14,ATGTATTA,0.169
15,CGCACCGC,-0.142
16,ATCGAGGA,-0.00377
17,CGCACGCC,0.0526
18,ATTTGTTC,0.297
19,ACTCTCTG,-0.15
20,GGTCGTAA,-0.0297
21,CCGGGACA,0.457
22,GCTGTACC,-0.0566
23,AAGGTGCG,-0.0808
24,AGGATTAG,0.0805
25,AAAGCAGT,0.0385

row,Sequence,PBM E-score
1,GAGACAAC,0.203
2,CTTATCTC,0.0207
3,AACGAGGG,-0.175
4,CAGACCTG,-0.159
5,AGGTTAAT,0.0557
6,ACTCAGAA,0.0481
7,AGGCATAC,-0.179
8,ACATTCAA,0.134
9,AATAACCT,-0.011
10,GAGTGTCC,0.232
11,GAGGTGAC,0.181
12,CCATCATA,-0.161
13,AGCTTACC,-0.106
14,AATGGCCC,-0.275
15,CGGAATGC,-0.0379
16,ACGTCACG,0.00154
17,GTAGATCA,0.00307
18,GAGATAAC,0.103
19,CGAGTAGC,0.0335
20,GTAAGTAA,0.0687
21,ATACAGAC,0.203
22,ATAGAGAC,0.215
23,CGGCGACC,-0.182
24,AGCTTCAC,-0.181
25,CTTATTCC,-0.0482

row,Sequence,PBM E-score
1,TACCTGGA,0.0334
2,TGAAGTAA,0.0331
3,AAAAGATC,-0.00188
4,AGCGCCAC,-0.254
5,ATCAGGAG,-0.0236
6,GAGCTCCC,-0.209
7,ACTTAACC,0.0614
8,GTAATCTA,0.3
9,CACCATGG,-0.25
10,ACGCGCTC,0.0922
11,ATCTACAA,-0.0675
12,AAGGGGAC,0.101
13,ACATGCGC,0.296
14,AATAAATT,0.219
15,TGCTATAA,0.0592
16,AAGTGGAC,0.209
17,ATAGTGAG,-0.0677
18,CACATGCA,-0.0632
19,AGCCTAAA,0.0544
20,ATCAGGTA,0.082
21,CCCTGTCG,-0.16
22,AAGTGGGT,-0.157
23,AAGAGTAG,-0.0872
24,ACATTCGC,0.216
25,AAGCGCGT,0.0286

row,Sequence,PBM E-score
1,TGAGGAAA,0.0866
2,CGTGAAGC,-0.311
3,ACCAACGT,0.117
4,ACGGCTAC,-0.19
5,CAGTTAAG,0.0527
6,CCGGACCC,-0.0546
7,ATGAAAAA,0.216
8,AAGGACGC,0.167
9,AGTTTCAG,-0.152
10,ACCGGTCT,-0.131
11,GAGATGCC,-0.00529
12,ATCAATAC,0.00754
13,GACAACGA,0.164
14,TAGGTCGA,0.0604
15,CCCTTATC,-0.16
16,GGCCCCTA,-0.302
17,CTTTAGCC,0.0483
18,CTGTGAAC,-0.0634
19,CGTTCGTC,0.108
20,ATAGTGGA,0.0789
21,CATCGTGA,-0.0776
22,ACAAACGG,0.298
23,AGAGCTCC,-0.268
24,GTAGGCTA,-0.0319
25,ATACAACA,0.0611

row,Sequence,PBM E-score
1,ATCGGCAG,-0.0545
2,ACTCACTA,0.0267
3,ATATTAGC,0.00702
4,ATAGCGGC,0.0571
5,AGGTCACG,-0.225
6,GGTAGGAC,0.238
7,CCTAGCAC,-0.141
8,AATGACAC,0.213
9,ACCACCGC,-0.206
10,CAATTACA,0.0298
11,CATAGAGA,0.113
12,CCGGACAG,0.227
13,CCCGCCTC,-0.154
14,CCCGGAAG,-0.0982
15,AGACGCTA,-0.0941
16,AATGGCAA,0.181
17,CGGAAATC,0.118
18,ACGTTCAC,0.0166
19,CTGTACAC,-0.0168
20,ACTATAGC,-0.0316
21,TAAGATTA,-0.0458
22,CTCGACGC,0.0992
